From the supplement of paper PMC11417369
The list shows a part of the results.

tested on: PfSIP2 AP2 domain 1 (GST-tagged); test: gcPBM binding intensity (ln(normalized median fluorescence intensity)); higher = stronger DNA binding
Outline: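 DNA-binding domains from P. falciparum, fused to GST and produced in E. coli, were put on an Agilent 4 × 180k double-stranded probe array for 1 h in 1× PBS holding 1% milk, 0.2 mg/ml BSA, 0.5% salmon testes DNA and 0.03% Triton X-100. Probes were primer-extended, 36 bp long and drawn from intergenic genomic regions, with negative controls included. After Alexa488 anti-GST antibody detection and a 488 nm scan, binding intensity was set as the highest Masliner-normalised natural-log median intensity across replicate spots of either probe orientation.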

Sequence	gcPBM binding intensity (ln)
ATAAAATTGTTTAAATGTACATATGAACAGTCAGTA [XGTACX_site5140]	7.53
ATATATGTAATAAATAGTACACACACACATATATAT [XGTACX_site2817]	7.33
CACATACACATACAAACACACATTAGATATAAATAT [CACACA_site6854]	7.24
AAAAAAAATTAATAGGGTACATGAAAAGTGGAATAT [XGTACX_site618]	7.43
ATAGAAGAAATATGCACACATACATTGAAATGTTTT [CACACA_site321]	7.43
CCATTAAGACACATTGCACACGTGCACCCATAGAAA [CACACA_site4388]	12.4
TGAACACGCACAAATACACACAAAAAAAATAAATAA [CACACA_site6257]	7.28
AACAAAATAGGGAACACACACATGTCAATATATAAA [CACACA_site2596]	7.06
AAAAAAAAATTAAAAACACACATATAAATAAATATA [CACACA_site6845]	6.9
TTTTTTTTTAAATAATGTACTTTTCATTATTTAGAT [XGTACX_site1706]	6.95
TTTTTATTTATTAATACACACACACCCACCCACAAA [CACACA_site7965]	8.02
AAAGAAAAAAATAATTGTACATTTATATTTAATTTA [XGTACX_site8003]	6.64
TACTTTTTTTTTTTTTTTTTTTTTTTTTCCCTTTTT [CACACA_negctrl_site761]	6.84
GTTTATTTATTATAATGTACATTAGTCTGAGGAGTT [XGTACX_site4035]	7.42
TTTTATTTATATATAGTGCATATTATTATAAAACAA	9.36
ATATATATATATATATGTACATATGTTAATCTGCAT [XGTACX_site1068]	9.63
CTTTTTTTCCATTAAGCATGCACATTCATATTTACT [TGCATGCA_site170]	7.24
TATATATATATAGGTTGTACATTTTGATGTTTACGT [XGTACX_site5503]	9.18
CACACCCACAAAAACACACACAAAGGTGTTCTTATA [CACACA_site1293]	7.04
TGTAGTCTGGAGAAACGTACATAGTATCTGGTAACC [XGTACX_site4939]	7.09
TATTTATTTTTTTGCACACATATTTTACATTTTAAT [CACACA_site3181]	7.65
ATAACATTCATATTCACACAAAAATATACTACATAG [CACACA_site4529]	7.09
TATATATATATATATACACACATATATATATTTATA [CACACA_site627]	9.69
ATATAAAAAGTGTATCGTACATTTACTTATTTTATA [XGTACX_site6249]	6.99
ATAAAAAAAGGACACACACACATATATATATATATA [CACACA_site5662]	9.46
